# Hit rate of the full screen: of about 420,000 compounds, about 50,000 (12%) were called active. The shares of active, inactive and inconclusive entries below differ from those in the screen. Calls come from the whole dose curve; as a rule, active = well fitted inhibition curve with a large enough effect; inconclusive = small, poorly fitted or top-dose-only effect; inactive = flat fitted curve, though single readings scatter. No potency is given beside an inconclusive call; the fits are too rough.
# Assay: qHTS for Inhibitors of human tyrosyl-DNA phosphodiesterase 1 (TDP1): qHTS in cells in presence of CPT; note: nearly all actives have a fitted effect of over 55% in size
# Details: chicken DT40 Tdp1-/-;hTDP1 cells + 20 nM CPT, ATP luminescence, 48 h; activity change, negative = growth inhibition: at 46.2 µM (top of the series)
# Outline: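 Cell growth measured by CellTiter-Glo luminescence after a minimum 48 h, 37 C compound exposure with 20 nM CPT in Tdp1-knockout DT40 cells stably expressing hTDP1, seeded 400/well; qHTS titration format.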
# % is set by controls: 0 for no effect and ±100 for the full control effect; potency is the fitted concentration of half-maximal effect; tags give direction and shape of the fitted curve.
SMILES,Potency,"activity change, negative = growth inhibition"
CCCOc1ccc(-c2nc(N3CCC(C)CC3)c3ccccc3n2)cc1,"inconclusive [inhibitor, single point]",
O=C(Cn1nnc(-c2cccs2)n1)Nc1ccccc1C(F)(F)F,inactive,
Cc1nnc(N/N=C/c2ccc(-c3ccccc3F)o2)n1N,"inconclusive [inhibitor, single point]",
CCCn1c2ccccc2c2cnn(CC(=O)N(Cc3ccccc3)C(C)C)c(=O)c21,active: 23.1 µM,
Cc1ccc(Oc2cc(NN3CCCCC3)c([N+](=O)[O-])cc2[N+](=O)[O-])c(Cl)c1,"inconclusive [inhibitor, single point]",
Cc1oc(-c2ccc(Cl)cc2)cc1C(=O)NC1CCN(Cc2ccccc2)CC1,"inconclusive [inhibitor, single point]",
CCCCOc1ccc(S(=O)(=O)NCc2csc(-c3ccc(OC)cc3)n2)cc1,"inconclusive [inhibitor, single point]",
C=CCn1c(C)cc(C(=O)CSc2nnc(NC(C)C)s2)c1C,"inconclusive [inhibitor, single point]",
CSc1ccc(C2=C/C(=C3/SC(=S)NC3=O)c3ccccc3O2)cc1,"inconclusive [inhibitor, single point]",
CCCCN1C(=N)N([C@@H](C)CN2CCC[C@H]2CN2C(N)=NC[C@H]2CC(C)C)C[C@H]1Cc1ccccc1,active: 16.4 µM,
CC(C)C(NC(=O)c1ccc(F)cc1)C(=O)N1CCN(c2ccccn2)CC1 (stereo not drawn),,inconclusive: -33.1% [inhibitor]
O=C1c2cccc3cccc(c23)C(=O)N1CCN1CCN(C(=S)Nc2ccc(Cl)cc2)CC1,"inconclusive [inhibitor, single point]",
CC(C)(C)c1cc(C(=O)N/N=C/c2ccc(O)cc2)n(-c2ccccc2)n1,"inconclusive [inhibitor, partial curve, poor fit]",
COc1ccc(N2CCN(c3nc(-c4cccs4)nc4ccccc34)CC2)cc1,"inconclusive [inhibitor, single point]",
O=C1C(C2=NC(c3ccccn3)C3C(=O)N(c4ccc(Cl)cc4Cl)C(=O)C23)=C(O)c2ccccc21 (stereo not drawn),"inconclusive [inhibitor, single point]",
CC(=O)Nc1ccc(S(=O)(=O)NCCC(=O)OC(C)C(=O)NC2(C#N)CCCCC2)cc1 (stereo not drawn),inactive,
C[C@H](NC(=O)c1ccccc1Cl)C(=O)OCC(=O)N1CCN(c2ccccc2)CC1,"inconclusive [inhibitor, single point]",
CCOC(=O)c1c(N2C(=O)C=CC2=O)sc(C)c1C,active: 1.16 µM,
Cc1ccc2c(c1)[C@@H]1CN(C)CC[C@@H]1N2S(=O)(=O)c1ccc(F)cc1,"inconclusive [inhibitor, single point]",
COc1ccc(CC(=O)NCC(c2cccs2)S(=O)(=O)c2ccc(Cl)cc2)cc1 (stereo not drawn),"inconclusive [inhibitor, single point]",
CC(=O)Nc1ccc(-c2ccnc3c2CC(C)(C(=O)Nc2ccc4c(c2)OCO4)O3)cc1 (stereo not drawn),active: 18.4 µM,
Cc1cnn(-c2cc(N/N=C/c3ccccc3F)ncn2)c1,"inconclusive [inhibitor, partial curve]",

SMILES,Potency,"activity change, negative = growth inhibition"
O=C(CN1CCN(C2CCCCC2)CC1)Nc1ccccc1N1CCCCC1,active: 29.1 µM,
COc1ccc2sc(-c3ccc(S(C)(=O)=O)cc3)c(C(=O)NCCc3c[nH]c4ccccc34)c2c1,active: 20.6 µM,
COc1cc(CCCN2C(=S)NC[C@H]2Cc2ccc(O)cc2)cc(OC)c1OC,"inconclusive [inhibitor, single point]",
CCN(CC)S(=O)(=O)c1cccc(C(=O)OCC(=O)N2CC(=O)Nc3ccccc32)c1,inactive,
CCCNC(=O)C1(C)CCCN(Cc2cc3ccccc3o2)C1 (stereo not drawn),active: 16.4 µM,
COc1ccc(Cl)cc1C(=O)Nn1c(C)nc2ccccc2c1=O,"inconclusive [inhibitor, single point]",
CCC(C(=O)Nc1cc(OC)ccc1OC)n1c(C)c2cnn(-c3ccccc3)c(=O)c2c1C (stereo not drawn),"inconclusive [inhibitor, single point]",
COc1ccc(NC(=O)C2Cc3c(-c4ccccc4Oc4ccccc4)ccnc3O2)cn1 (stereo not drawn),active: 14.6 µM,
Cc1c(C(=O)N2CCCC2)oc2c1-c1nn(CC(=O)NC(C)c3ccccc3)cc1CC2 (stereo not drawn),"inconclusive [inhibitor, single point]",
CN(C(=O)COC(=O)c1ccccc1OCc1ccc(Cl)cc1)c1c(N)n(Cc2ccccc2)c(=O)[nH]c1=O,"inconclusive [inhibitor, single point]",
O=C(/C=C/c1ccc(F)cc1)N1CCN(S(=O)(=O)/C=C/c2ccccc2)CC1,inactive,
CCSc1nnc(Cc2cc(=O)[nH]c(=O)[nH]2)n1-c1ccc(F)cc1,inactive,
Cc1cccc(OCCC(=O)Nc2ccc(Cl)cc2F)c1,inactive,
Cc1ccc(NC(=S)/N=C(\N)Nc2nc(C)c3ccccc3n2)cc1C,"inconclusive [inhibitor, single point]",
CCn1cc(C(=O)NCCC(=O)NCCCO)c(=O)c2cc3c(cc21)OCO3,inactive,
Cc1ccc2oc(C(=O)Nc3cccc(-c4nc5ccccc5s4)c3)c(C)c2c1,"inconclusive [inhibitor, partial curve]",
Cc1cc(C)cc(C(=O)N(C)C2CCCN(Cc3ccccc3F)C2)c1 (stereo not drawn),"inconclusive [inhibitor, single point]",
CCOC(=O)CN=C1CC(C)(C)CC2=C1Sc1ncnc(N(C)C)c1N2,active: 13 µM,
O=[N+]([O-])c1ccc(CN2CC(N3CC=CC3)CS2(=O)=O)cc1 (stereo not drawn),"inconclusive [inhibitor, single point]",
COc1cccc(NC(=O)CN(C)C(=O)Cn2c(=O)oc3ccccc32)c1,inactive,
COc1cc(C(=O)Nc2nnc(-c3sccc3C)s2)cc(OC)c1OC,"inconclusive [inhibitor, single point]",
